# From the supplement of paper PMC9446081
# The whole screen tested about 39,000 compounds, of which about 220 (0.56%) showed activity. Some of the results follow.
# System: Escherichia coli K-12 BW25113
# Experiment: relative growth (OD600 normalised to plate interquartile mean) (fraction); higher = less growth inhibition, active = 0.2 or less
# Settings: 50 µM; LB; incubation time: overnight (16-24 h)
# 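Further: static incubation at 37 °C against the wild-type strain, values averaged over two biological replicates.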
row,SMILES,relative growth
1,C[C@@H]1CN([C@@H](C)CO)C(=O)c2cc(NC(=O)C3CCCCC3)ccc2O[C@@H](C)CCCCO[C@@H]1CN(C)Cc1ccc(C(=O)O)cc1,inactive: 0.989
2,COCC(=O)Nc1ccc2c(c1)OC[C@H](C)N(Cc1ccccc1OC)C[C@H](C)[C@H](OC)CN(C)C2=O,inactive: 1.02
3,C[C@@H]1CN([C@@H](C)CO)S(=O)(=O)c2ccc(-c3cccc(C#N)c3)cc2O[C@H]1CN(C)C(=O)c1cccnc1,inactive: 0.954
4,Cc1noc(C)c1NC(=O)Nc1ccc2c(c1)C(=O)N([C@@H](C)CO)C[C@H](C)[C@@H](CN(C)C(=O)Nc1ccc(C(F)(F)F)cc1)O2,inactive: 0.952
5,C[C@H]1CN([C@@H](C)CO)C(=O)c2cc(NC(=O)Cc3ccccc3)ccc2O[C@@H]1CN(C)C(=O)Nc1ccc(C(F)(F)F)cc1,inactive: 0.991
6,O=C(O)[C@H]1Cc2ccccc2CN1,inactive: 1
7,C[C@H]1CN([C@@H](C)CO)C(=O)Cc2cc(NC(=O)Nc3ccc(C(F)(F)F)cc3)ccc2O[C@H]1CN(C)Cc1ccc(C(=O)Nc2ccccc2N)cc1,inactive: 1.04
8,C[C@H]1CN([C@@H](C)CO)C(=O)c2cc(NC(=O)CCN3CCOCC3)ccc2O[C@H]1CN(C)C(=O)NC1CCCCC1,inactive: 0.98
9,C[C@H](CO)N1C[C@H](C)[C@H](CN(C)Cc2ccc(-c3ccccc3)cc2)Oc2ccc(NC(=O)CCC(F)(F)F)cc2C1=O,inactive: 1.02
10,O=C(CS)NCCCCCNC(=O)[C@@H]1C[C@@H]2C(=O)NCC(=O)N2[C@@H]1c1cccc(OCCO)c1,inactive: 0.982
11,COc1ccc(CN(C)C[C@@H]2Oc3ccc(NS(C)(=O)=O)cc3C(=O)N([C@H](C)CO)C[C@@H]2C)cc1,inactive: 1
12,C[C@H]1CN([C@@H](C)CO)C(=O)c2ccccc2-c2ccccc2CO[C@@H]1CN(C)C(=O)Nc1ccc(-c2ccccc2)cc1,inactive: 1.01
13,COc1ccc(-c2cnc3c(c2)C(=O)N([C@@H](C)CO)C[C@@H](C)[C@@H](CN(C)C(=O)Cc2ccccn2)O3)cc1,inactive: 0.986
14,CC(=O)OC1CC(OC(C)=O)C2(C)C(CC(O)C3(C)C2CCC2(C)C(c4ccoc4)OC(=O)C4OC423)C1(C)C (stereo unspecified),inactive: 0.981
15,C[C@H]1CCCCO[C@@H](CN(C)Cc2ccc3c(c2)OCO3)[C@@H](C)CN([C@@H](C)CO)C(=O)c2cc(NC(=O)Nc3cccc4ccccc34)ccc2O1,inactive: 0.993
16,O=C1c2ccncc2C(=O)N1CO,inactive: 1.02
17,C[C@@H]1CN([C@@H](C)CO)C(=O)Cc2cc(NC(=O)C3CCCCC3)ccc2O[C@H]1CN(C)C(=O)Nc1ccc(C(F)(F)F)cc1,inactive: 1.03
18,C[C@H](CO)N1C[C@H](C)[C@@H](CN(C)Cc2ccc(-c3ccccc3)cc2)Oc2ccc(NC(=O)NC3CCCCC3)cc2C1=O,inactive: 0.99
19,C[C@H]1CCCCO[C@H](CN(C)Cc2ccc3c(c2)OCO3)[C@@H](C)CN([C@@H](C)CO)C(=O)c2cc(NS(=O)(=O)c3ccc(Cl)cc3)ccc2O1,inactive: 0.887
20,NCCCC[C@@H]1NC(=O)[C@H]2C[C@@H](C(=O)NCc3ccc(F)cc3)[C@@H](c3cccc(OCCO)c3)N2C1=O,inactive: 1.01
21,COc1ccccc1CN1C(=O)c2ccccc2[C@](Cc2ccccc2I)(C(=O)O)[C@@H]1c1ccc(CO)cc1,inactive: 1.02

row,SMILES,relative growth
1,C[C@@H]1CCCCO[C@H](CN(C)S(=O)(=O)c2cccs2)[C@H](C)CN([C@@H](C)CO)C(=O)c2cc(NC(=O)Nc3ccc(F)cc3)ccc2O1,inactive: 1.03
2,COc1ccc(CNC(=O)C[C@H]2C[C@@H]3c4cc(NS(=O)(=O)c5ccc(F)cc5)ccc4O[C@@H]3[C@H](CO)O2)cc1,inactive: 0.981
3,Cn1cnc(S(=O)(=O)N2C[C@@H](O)COC[C@@H]3O[C@@H](CC(=O)NCc4cc(F)cc(F)c4)CC[C@H]32)c1,inactive: 1.01
4,CC(C)NC(=O)N[C@H]1CC[C@H](CCN)O[C@@H]1CO,inactive: 0.987
5,C[C@H](O)C#Cc1ccc2c(c1)O[C@H](CN(C)C(=O)CN(C)C)[C@@H](C)CN([C@@H](C)CO)S2(=O)=O,inactive: 1.03
6,NCCCCCNC(=O)[C@@H]1C[C@@H]2C(=O)N[C@@H](Cc3ccccc3)C(=O)N2[C@@H]1c1cccc(OCCO)c1,inactive: 1.01
7,COCC#Cc1ccc2c(c1)O[C@@H](CN(C)C(=O)C1CCOCC1)[C@H](C)CN([C@H](C)CO)S2(=O)=O,inactive: 0.993
8,CC(C)N1CC[C@H](CNCc2ccc(Oc3ccccc3)cc2)Oc2c(NC(=O)c3ccncc3)cccc2C1=O,inactive: 1.07
9,CCC(=O)NS(=O)(=O)c1ccccc1,inactive: 0.985
10,COc1ccc2c3c(n(c2c1)C)[C@H](CO)N(Cc1ccccc1)C[C@]13CCN(CC1)C(=O)c1ccccc1F,inactive: 1.02
11,COc1cc(NC(C)CCCN)c2ncccc2c1.O=P(O)(O)O.O=P(O)(O)O (stereo unspecified),inactive: 0.836
12,C[C@H]1CN([C@@H](C)CO)C(=O)Cc2cc(NS(C)(=O)=O)ccc2O[C@H]1CN(C)C(=O)Nc1ccc(C(F)(F)F)cc1,inactive: 0.996
13,COC(=O)C[C@H]1CC[C@H]2[C@@H](COC[C@H](O)CN2S(=O)(=O)c2ccc(F)cc2)O1,inactive: 0.969
14,CN(C)CCC(c1ccc(Br)cc1)c1ccccn1.O=C(O)C=CC(=O)O (stereo unspecified),inactive: 1.04
15,C[C@H](CO)N1C[C@H](C)[C@H](CN(C)C(=O)Nc2cccc3ccccc23)Oc2ccc(NS(=O)(=O)c3ccc(Cl)cc3)cc2CC1=O,inactive: 1.01
16,Cc1cc(C(=O)Nc2cccc3c2O[C@H](CN(C)S(=O)(=O)c2c(C)noc2C)[C@H](C)CN([C@H](C)CO)C3=O)n(C)n1,inactive: 1.01
17,C[C@@H]1CCCCO[C@@H](CN(C)Cc2ccccc2)[C@H](C)CN([C@@H](C)CO)C(=O)c2cc(NS(=O)(=O)c3ccc(Cl)cc3)ccc2O1,inactive: 0.999
18,C[C@@H]1CN([C@H](C)CO)C(=O)Cc2cc(NC(=O)Cn3cnnn3)ccc2O[C@H]1CN(C)Cc1ccc(-c2ccccc2)cc1,inactive: 1.05
19,Cc1ccc2nc(-c3ccc(/N=C\c4ccc[nH]4)cc3)sc2c1,inactive: 1.03
20,C=CCOC(=O)[C@@H]1[C@H]2C(=O)O[C@H](c3ccccc3)[C@H](c3ccccc3)N2[C@H](c2ccc(OCCOC(=O)[C@@H]3C[C@@H]4C(=O)N[C@@H](CCCCNC(C)=O)C(=O)N4[C@@H]3c3ccc(O)cc3)cc2)[C@@]12C(=O)Nc1ccc(I)cc12,inactive: 1.03
21,O=C(O)/C=C\C(=O)O,inactive: 0.956

row,SMILES,relative growth
1,O=C(CS)NCCCCCNC(=O)[C@@H]1C[C@@H]2C(=O)N[C@@H](Cc3ccccc3)C(=O)N2[C@@H]1c1ccc(O)cc1,inactive: 0.989
2,C[C@@H]1CN([C@@H](C)CO)C(=O)c2cc(NC(=O)Nc3ccc4c(c3)OCO4)ccc2O[C@@H](C)CCCCO[C@@H]1CN(C)C(=O)Cc1ccccc1,inactive: 1.07
3,C[C@@H]1CN([C@H](C)CO)S(=O)(=O)c2ccc(C#Cc3ccc(F)cc3)cc2O[C@H]1CN(C)C(=O)CN(C)C,inactive: 0.998
4,C[C@H]1CN([C@@H](C)CO)C(=O)c2cc(NC(=O)CCCCCC(=O)Nc3ccccc3N)ccc2O[C@H]1CN(C)C(=O)Nc1ccc(F)cc1,inactive: 0.981
5,O=C(N1CCOCC1)[C@@]1(CCS(=O)(=O)c2ccccc2)N=C(c2ccc(OCCCO)cc2)O[C@H]1c1ccccc1,inactive: 1.01
6,CC(C)(C)c1ccc(-c2nc3ccccc3s2)cc1,inactive: 0.975
7,Cc1ccccc1S(=O)(=O)N1C[C@H](O)COC[C@@H]2O[C@H](CC(=O)NCCc3ccncc3)CC[C@H]21,inactive: 0.992
8,COc1ccc2c3c([nH]c2c1)[C@H](CO)N(C[C@]13CN(Cc2cc(on2)-c2ccccc2)C1)C(=O)Nc1ccc(cc1)F,inactive: 1.01
9,COCC#Cc1cnc2c(c1)C(=O)N([C@H](C)CO)C[C@@H](C)[C@H](CN(C)C(=O)CCN1CCCCC1)O2,inactive: 1
10,[N-]=[N+]=NCc1ccccc1C[C@]1(C(=O)NCCN2CCOCC2)COC(c2ccc(OCCCO)cc2)=N1,inactive: 0.888
11,COc1cccc(S(=O)(=O)Nc2ccc3c(c2)C(=O)N(C)C[C@H](OC)[C@H](C)CN(C(=O)Cc2cccnc2)[C@@H](C)CO3)c1,inactive: 1
12,Cc1ccc(S(=O)(=O)Nc2ccc3c(c2)C(=O)N([C@@H](C)CO)C[C@@H](C)[C@H](CN(C)S(=O)(=O)c2cccs2)O3)cc1,inactive: 1
13,Cc1noc(C)c1NC(=O)N(C)C[C@@H]1OCCCC[C@@H](C)Oc2ccc(NC(=O)Nc3ccc(F)cc3)cc2C(=O)N([C@H](C)CO)C[C@H]1C,inactive: 0.984
14,C[C@@H]1CN([C@@H](C)CO)C(=O)c2cc(C#CCN(C)C)cnc2O[C@@H]1CN(C)Cc1cccc(C(=O)O)c1,inactive: 0.973
15,C[C@H](CO)N1C[C@H](C)[C@H](CN(C)C(=O)Nc2ccc3c(c2)OCO3)Oc2ccc(NC(=O)c3ccncc3)cc2C1=O,inactive: 1.03
16,CC(C)NC(=O)Nc1ccc2c(c1)C(=O)N([C@@H](C)CO)C[C@H](C)[C@H](CN(C)Cc1ccc(C(F)(F)F)cc1)OCCCC[C@@H](C)O2,inactive: 0.963
17,CC(C)n1nccc1NC(=O)CN,inactive: 0.984
18,C[C@H]1CN([C@@H](C)CO)C(=O)Cc2cc(NC(=O)Cc3ccccc3)ccc2O[C@@H]1CN(C)C(=O)Nc1cccc2ccccc12,inactive: 1.01
19,C[C@H]1CCCCO[C@@H](CN(C)S(=O)(=O)c2cccs2)[C@@H](C)CN([C@@H](C)CO)C(=O)c2cc(NS(=O)(=O)c3ccc(Cl)cc3)ccc2O1,inactive: 1.02
